Measurements: PubChem BioAssay AID588501 (NMMLSC, 2011)
Screen size: about 360,000 compounds; about 420 (0.12%) were called active. Inconclusive results, whose numbers are uncertain, are shown with a selection of clear calls. Rule as the data show it: active = inhibition above about 30%; inconclusive = no clear call, values can overlap the other calls; inactive = below that.

Each compound was assayed against Lethal factor (Bacillus anthracis) (UniProt P15917) (assay: anthrax lethal factor cleavage blockers – biochemical, multiplex microsphere, MLPCN library, primary screen (AID 588501; also: plate controls were buffer without enzyme for full effect and enzyme alone for no effect)). Conditions: multiplex microsphere protease cleavage assay, LF; at 10 µM; active compounds read high.
Sequence of UniProt P15917 (P15917 whole entry, looked up): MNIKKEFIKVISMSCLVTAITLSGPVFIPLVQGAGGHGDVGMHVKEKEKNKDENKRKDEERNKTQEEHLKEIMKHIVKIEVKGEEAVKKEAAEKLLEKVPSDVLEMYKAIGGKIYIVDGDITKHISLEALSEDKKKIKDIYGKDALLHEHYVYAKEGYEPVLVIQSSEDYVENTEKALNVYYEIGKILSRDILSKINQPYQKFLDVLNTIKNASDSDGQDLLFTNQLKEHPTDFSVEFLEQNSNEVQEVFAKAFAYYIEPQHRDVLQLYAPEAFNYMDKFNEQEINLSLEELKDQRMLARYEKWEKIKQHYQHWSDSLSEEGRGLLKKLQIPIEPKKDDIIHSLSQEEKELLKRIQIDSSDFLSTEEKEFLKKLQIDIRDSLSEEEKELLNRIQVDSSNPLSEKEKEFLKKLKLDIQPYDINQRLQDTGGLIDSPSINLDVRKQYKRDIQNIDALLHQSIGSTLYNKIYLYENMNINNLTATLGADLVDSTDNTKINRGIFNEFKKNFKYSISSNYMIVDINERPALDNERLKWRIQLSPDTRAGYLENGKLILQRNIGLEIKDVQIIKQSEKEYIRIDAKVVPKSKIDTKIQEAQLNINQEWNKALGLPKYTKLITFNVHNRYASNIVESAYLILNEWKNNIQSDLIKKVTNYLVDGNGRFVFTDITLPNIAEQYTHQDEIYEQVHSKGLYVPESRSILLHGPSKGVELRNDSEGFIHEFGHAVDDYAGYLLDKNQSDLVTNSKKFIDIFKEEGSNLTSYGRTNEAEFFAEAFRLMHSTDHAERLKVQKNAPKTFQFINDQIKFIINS
In the case of `CCCCSc1nnc2nc(C)cc(C)n12`, the inhibition was inconclusive: -9.4%.
`CCOC(=O)CN1C(=O)S/C(=C\c2ccc(-c3cccc(C(=O)O)c3C)o2)C1=O` was tested, and the inhibition was inconclusive: -2.7%.
`CS(=O)(=O)Oc1ccc2c(c1)O/C(=C\C=C\c1ccccc1)C2=O` was tested, and the inhibition was inconclusive: 23.1%.
In the case of `COc1ccc(-c2nc(SC(C)C(=O)NC3CC3)n[nH]2)cc1` (stereo unspecified), the inhibition was inconclusive: -3%.
With `Cc1nc2ccc(NC(=O)c3cccc(S(=O)(=O)N4CC(C)OC(C)C4)c3)cc2s1` (stereo unspecified) the inhibition was active: 30.5%.
With `CS(=O)(=O)N(CC(=O)NCCSCc1ccccc1)c1ccccc1F` the inhibition was inactive: 4.8%.
In the case of `CCN(CC)C(=O)CSc1nc(Cc2ccccc2)nc2ccccc12`, the inhibition was active: 39.8%.
In the case of `COc1ccc(NC(=O)Nc2cc(C)cc(C)c2)cn1`, the inhibition was inconclusive: -9.7%.
For `CCc1ccc(N2CC(C(=O)Nc3ccc(S(=O)(=O)N4CCOCC4)cc3)CC2=O)cc1` (stereo unspecified), the inhibition was inactive: 0.5%.
With `CCCCc1cc(=O)oc2c(C)c(OCC(=O)NCC3CCC(C(=O)O)CC3)ccc12` (stereo unspecified) the inhibition was inactive: -4.1%.
With `Cc1cc(C)c(C#N)c(SCc2ccc(C(=O)O)cc2)n1` the inhibition was active: 31.6%.
In the case of `CCOc1ccc(C(=O)CCC(=O)NCC(=O)OCc2ccccc2)cc1OCC`, the inhibition was inactive: -2%.
`COc1cc(OC)cc(C(=O)NC2CC3CCC(C2)N3C)c1` (stereo unspecified) was tested, and the inhibition was inconclusive: -3.8%.
In the case of `Cc1ccc(C(=O)Nn2c(N)c(S(=O)(=O)c3ccc(C)cc3)c3nc4ccccc4nc32)cc1`, the inhibition was inconclusive: 6.9%.
`Clc1ccc(OCCOCCN2CCCCC2)c(Br)c1` was tested, and the inhibition was inconclusive: -7.3%.
With `CSCCC(NC(=O)c1ccco1)C(=O)OCC(=O)N(Cc1ccccc1)C(C)(C)C` (stereo unspecified) the inhibition was inconclusive: -2.4%.
For `CCC(C)Nc1nc(-c2c[nH]c3ccccc23)cs1` (stereo unspecified), the inhibition was inconclusive: 6.1%.
With `Cc1ccc(NC(=O)CSc2nnc(-c3ccccn3)n2N)c(Br)c1` the inhibition was inconclusive: 13.7%.
`CN1CCc2c(sc(NC(=O)c3ccc4ccccc4c3)c2C(N)=O)C1` was tested, and the inhibition was inconclusive: 0.2%.
In the case of `COc1ccc2nc(NC(=O)C3CC(=O)N(c4ccc5c(c4)OCCO5)C3)sc2c1` (stereo unspecified), the inhibition was inconclusive: -0.1%.
`O=C(Cc1c[nH]c2ccccc12)N1CCN(S(=O)(=O)c2cccc(Cl)c2Cl)CC1` was tested, and the inhibition was inactive: -0.5%.
`O=C(NCc1ccccc1)c1cc[n+](CC(=O)c2cccs2)cc1` was tested, and the inhibition was inconclusive: -18.5%.
In the case of `CN(C)c1ccc(P(=O)(OC2CCCCC2)C(Nc2ccccc2)c2cccnc2)cc1` (stereo unspecified), the inhibition was inconclusive: -29.3%.
For `COc1ccc(NC2=Nc3ccccc3N3C2=Nc2c(c(C)nn2-c2ccc(C)cc2)C3c2cccnc2)cc1` (stereo unspecified), the inhibition was active: 60.1%.
With `Cc1cc(S(=O)(=O)NCCC2=CCCCC2)ccc1Br` the inhibition was inconclusive: 2.4%.
`O=C(COC(=O)c1cc(S(=O)(=O)N2CCOCC2)ccc1Cl)NCc1ccco1` was tested, and the inhibition was inconclusive: -4.8%.
With `COc1ccc(-c2nnc(SC(C)C(=O)Nc3nccs3)n2-c2ccccc2)cc1OC` (stereo unspecified) the inhibition was inactive: -2.9%.
`CCN(CC)C(=O)c1cccc(-c2csc(C(C)(NC(C)=O)c3ccc(OC)cc3)n2)c1` (stereo unspecified) was tested, and the inhibition was inactive: -5.6%.
In the case of `O=C(CCN1CCc2ccccc21)c1ccc2c(c1)OCCO2`, the inhibition was inconclusive: -51.6%.
For `CS(=O)(=O)N(CC(=O)N1CCOCC1)c1ccccc1`, the inhibition was active: 44.7%.
With `COc1ccc(C(C(=O)NC2CCCC2)N2CCc3ccccc32)cc1` (stereo unspecified) the inhibition was inconclusive: -28.1%.
In the case of `CCOC(=O)c1cn[nH]c1NC(=S)Nc1ccc(OC)cc1`, the inhibition was inconclusive: 0.6%.
With `Cc1ccc(C)c(NC(=O)c2ccc3c(=O)n4c(nc3c2)CCC4)c1` the inhibition was inconclusive: 6.9%.
In the case of `Cc1ccc(C(=O)c2ccccc2C(=O)OCC(=O)NC(C)(C)C)cc1`, the inhibition was inactive: -2.6%.
`CN(Cc1ccccc1)Cc1ccccc1F` was tested, and the inhibition was inconclusive: -16.6%.
In the case of `COc1ccc(/C=N/Nc2cc(C)nc(N3CCOCC3)n2)cc1OC`, the inhibition was inconclusive: 0.5%.
For `C=C1CSc2nc(=O)c3c4c(sc3n21)CCC4`, the inhibition was inconclusive: 39.5%.
For `COc1ccc(OC)c(NC(=O)COc2ccc(S(=O)(=O)N3CCCC3)cc2)c1`, the inhibition was inactive: 10.7%.
`CCC(=O)Nc1cc2c3c(c1)CCN3C(=O)CC2` was tested, and the inhibition was inactive: -1.8%.
In the case of `O=[N+]([O-])c1ccc(/C=C/c2ccc3cccc(O)c3n2)cc1`, the inhibition was inactive: -9.9%.
With `CC(=O)C(Cc1ccccc1)NC(=O)COC(=O)c1cc(S(=O)(=O)N2CCOCC2)ccc1F` (stereo unspecified) the inhibition was inactive: -4.2%.
With `Cc1ccccc1-c1nnc(SCc2ccc(F)cc2)o1` the inhibition was inconclusive: 13.5%.
In the case of `CCOC(=O)C1CCCN(c2c(NCCN(CC)c3ccccc3)c(=O)c2=O)C1` (stereo unspecified), the inhibition was inactive: -7.3%.
With `Cc1nn(C2CCCCC2)c(N)c1-c1ccccc1` the inhibition was inconclusive: -1.1%.
For `CC(C)CCN(C(=O)CCSc1ccc(F)cc1)c1c(N)n(Cc2ccccc2)c(=O)[nH]c1=O`, the inhibition was inconclusive: -1.4%.
For `CC(C)c1cc(Br)ccc1OCCCN1C(=O)NC(C)(C)C1=O`, the inhibition was inconclusive: 9.1%.
`CCCn1nnc(NCc2ccc(OCc3cccs3)c(OC)c2)n1` was tested, and the inhibition was inactive: -2.3%.
`COc1ccc(Cl)cc1NC(=O)CN(C)C(C)C(=O)NC(=O)NC1CCCCC1` (stereo unspecified) was tested, and the inhibition was inactive: -2.7%.
`O=C1c2ccccc2C(=O)N1CCc1nc(-c2ccncc2)no1` was tested, and the inhibition was inactive: -8.3%.
In the case of `Cc1ccc(-n2cc3c(-c4cccc(Br)c4)nnc(C)c3n2)cc1`, the inhibition was inconclusive: -8%.
For `O=C1c2ccccc2NC(c2ccc(O)cc2)N1Cc1ccco1` (stereo unspecified), the inhibition was inconclusive: -10.5%.
With `Cc1cc(C=C2C(=O)N(C)C(=S)N(C)C2=O)c(C)n1C1CCCC1` the inhibition was active: 37.9%.
With `Cc1ccccc1NC(=O)Cc1nc(COC(=O)/C=C/c2ccccc2)cs1` the inhibition was inconclusive: -7.4%.
`Cc1nc2ccccc2c2oc(C(=O)NCCCN3CCCC(C)C3)cc12` (stereo unspecified) was tested, and the inhibition was inconclusive: 6.4%.
`COc1cc(NC(=O)c2c(OC)cccc2OC)ccc1NC(=O)c1cc2ccccc2o1` was tested, and the inhibition was active: 32%.
With `Cc1ccc(C2=N/C(=C\c3cccs3)C(=O)N2Nc2ccccc2)cc1` the inhibition was active: 64%.
For `Clc1ccc(-c2noc(CN3CCOCC3)n2)cc1`, the inhibition was inconclusive: -23.3%.
`c1ccc(CCn2nnnc2CN2CCCc3ccccc32)cc1` was tested, and the inhibition was inconclusive: -10.4%.
With `Cc1csc(NC(=O)c2oc3ccccc3c2C)n1` the inhibition was inconclusive: 0.8%.
In the case of `COc1ccc(-n2nnnc2SCC(=O)Nc2nnn(C)n2)cc1`, the inhibition was inactive: -2.1%.
With `Cc1ccc(C2(C)NC(=O)N(CC(=O)Nc3ccc(Cl)c(S(=O)(=O)N4CCCCC4)c3)C2=O)cc1` (stereo unspecified) the inhibition was inconclusive: -1.1%.
`O=C(CN1C(=O)NC2(CCCCCC2)C1=O)c1ccc(F)cc1` was tested, and the inhibition was inconclusive: -34.4%.
`O=C1CCCN1CCC1CCN(C(=S)Nc2ccc(F)cc2)CC1` was tested, and the inhibition was inconclusive: 4.3%.
With `Cn1cc(Cl)c(-c2nc3ccccc3[nH]2)n1` the inhibition was inconclusive: -14.5%.
With `COc1ccc(S(=O)(=O)N2CCN(C(=O)c3cc(C)on3)CC2)cc1` the inhibition was inconclusive: -0.6%.
`CCC(C)n1c(C)nc2c(c1=O)c1nc3ccccc3nc1n2CCC1=CCCCC1` (stereo unspecified) was tested, and the inhibition was inconclusive: -5.3%.
`N#CC1(NC(=O)CSc2nnc(COc3ccccc3F)n2N)CCCCC1` was tested, and the inhibition was inconclusive: -5%.
In the case of `CC(C)N1CCc2c(sc(NC(=O)c3ccc(C(=O)c4ccccc4)cc3)c2C(N)=O)C1`, the inhibition was inactive: -0.5%.
With `Cc1cc(C(=O)Nc2ccc(Cl)c(S(=O)(=O)N3CCOCC3)c2)c2ccccc2n1` the inhibition was inconclusive: -7.7%.
For `COc1cc(/C=C2\SC(N3CCCCC3)=NC2=O)cc(OC)c1OC`, the inhibition was inactive: -1.7%.
`CCOc1ccc(S(=O)(=O)N2CCOCC2)cc1NS(=O)(=O)c1ccc(OC)c([N+](=O)[O-])c1` was tested, and the inhibition was inconclusive: 1%.
With `CCN(CC)c1nc(-c2nn[nH]n2)nc(N(CC)CC)n1` the inhibition was inconclusive: 18.4%.
`COc1ccnc2c1c(=O)n(Cc1c(F)cccc1Cl)c(=O)n2C` was tested, and the inhibition was inactive: -4.2%.
In the case of `CSc1c(CN2CCN(C)CC2)c2ccccc2n1C`, the inhibition was inactive: 4.8%.
`O=C(NCCNC(=O)C(F)(F)F)c1ccncc1` was tested, and the inhibition was inconclusive: -25.5%.
For `c1ccc(CSc2snnc2-c2ccccc2)cc1`, the inhibition was inconclusive: -13.1%.
`CCc1ccc2c(c1)NC(=O)C2(C)Cc1ccc(Cl)s1` (stereo unspecified) was tested, and the inhibition was inactive: 1.2%.
With `CSCCC(NC(=O)c1ccccc1Br)C(=O)NNC(=O)c1ccco1` (stereo unspecified) the inhibition was inconclusive: 4.2%.
For `Cc1ccc(S(=O)(=O)NCCSC(C)(C)C)cc1`, the inhibition was inconclusive: 6.4%.
In the case of `Cc1ccc[n+](CC(=O)c2ccc(NC(=O)c3ccccc3)cc2)c1C`, the inhibition was inconclusive: -4.2%.
With `COCCN(C(=O)CSc1ncccn1)c1c(N)n(Cc2ccccc2)c(=O)[nH]c1=O` the inhibition was inconclusive: -2.8%.
With `Cc1ccc(C2NC(=O)c3ccccc3N2)c(C)c1` (stereo unspecified) the inhibition was inactive: 2.9%.
In the case of `CCOC(=O)c1sc(S(C)(=O)=O)c2c1CC(C)(C)C/C2=N/O`, the inhibition was inconclusive: -2.6%.
`CCCNC(=O)C12CCC(C)(C(=O)O1)C2(C)C` (stereo unspecified) was tested, and the inhibition was inconclusive: -8.2%.
In the case of `CCCc1nc2c3ccccc3ccn2c1Cc1ccc(OC)cc1C`, the inhibition was inconclusive: 15.4%.
`Cc1cc(=O)oc2cc(OCC(=O)NCCc3nc4ccccc4[nH]3)ccc12` was tested, and the inhibition was inconclusive: -27%.
`O=C(Nc1ccc(CN2CCOCC2)cc1)c1ccccc1F` was tested, and the inhibition was inconclusive: -22.1%.
`Cc1ccc(C)c(NC(=O)COC(=O)COc2cccc3c2OC(C)(C)C3)c1` was tested, and the inhibition was inactive: -2.1%.
`Cc1c(C(=O)NCC2CCCO2)oc2c(Cl)cccc12` (stereo unspecified) was tested, and the inhibition was inconclusive: -1.6%.
In the case of `CNC(=S)N1N=C(c2cccs2)CC1c1ccc(OC)cc1` (stereo unspecified), the inhibition was inactive: 10.4%.
With `Cc1ccc(C)c(NC(=O)CSc2nc(=O)n(CCN3CCOCC3)c3c2CCCC3)c1` the inhibition was inconclusive: -0.8%.
